From paper doi:10.1101/2025.05.13.653815, “Roles of the MO25 protein Pmo25 in contractile-ring stability and localization of the NDR kinase Sid2 during cytokinesis” (bioRxiv, 2025)
Results are given in words; binding and its absence hold for the method and conditions named. For part of these data: In cells and extracts the contact can be indirect. Some results given as binding are weak or reduced against the parent protein; the word gives no strength. Where a sequence is shown, tags or fusion partners need not be part of it. Each block holds one binder with its values, some of them ahead of it.

Amino acid sequences for entries named in this document (tags omitted).
UniProt Q09196: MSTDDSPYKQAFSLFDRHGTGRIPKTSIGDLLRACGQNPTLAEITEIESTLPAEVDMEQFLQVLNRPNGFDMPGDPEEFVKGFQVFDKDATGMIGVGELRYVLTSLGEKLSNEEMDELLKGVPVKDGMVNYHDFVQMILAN

Assays:
[1] = target: T1, Pmo25-mECitrine (S. pombe) (UniProt Q9P7Q8); experiment: co-IP; S. pombe cell extracts, IP buffer with 150 mM NaCl and 0.5% NP-40, pH 7.5, 4°C; anti-GFP polyclonal antibody on protein G Dynabeads; blots with anti-Myc and anti-GFP
T1 sequence: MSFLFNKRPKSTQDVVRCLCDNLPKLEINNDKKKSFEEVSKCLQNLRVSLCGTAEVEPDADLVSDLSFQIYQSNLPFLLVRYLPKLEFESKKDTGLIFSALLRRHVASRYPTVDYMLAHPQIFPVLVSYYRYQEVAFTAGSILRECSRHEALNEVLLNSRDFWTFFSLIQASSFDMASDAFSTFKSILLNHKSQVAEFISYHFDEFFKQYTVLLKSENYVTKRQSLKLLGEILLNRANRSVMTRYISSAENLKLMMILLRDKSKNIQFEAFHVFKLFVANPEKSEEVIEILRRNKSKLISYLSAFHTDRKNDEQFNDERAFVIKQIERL

[2] = target: BD-Cdc4 (full length Cdc4 in pGBT9) (S. pombe) (UniProt Q09196); experiment: two-hybrid; AD-Pmo25 (pVP16) and BD-Cdc4 (pGBT9) co-transformed into S. cerevisiae MaV203; LacZ as a reporter
mYFP-Cdc4 (S. pombe) = mYFP-Cdc4 (S. pombe) (UniProt Q09196); experiment: co-IP; S. pombe cell extracts, IP buffer with 150 mM NaCl and 0.5% NP-40, pH 7.5, 4°C; anti-GFP polyclonal antibody on protein G Dynabeads; blots with anti-Myc and anti-GFP
[3] = target: T2, MBP-Ync13-(591-1130)-6His (S. pombe, UniProt O13683 591-1130); experiment: pull-down; MBP-Ync13 proteins held on amylose beads, Pmo25-6His proteins added for 1 h at 4°C in binding buffer (137 mM NaCl, pH 7.4, 0.5 mM DTT, 10% glycerol); SDS-PAGE, Coomassie Blue; both purified
T2 construct: The cloning of this truncation is not described; not shown: MBP, N-terminal, kept; His6, C-terminal, kept
T2 sequence (looked up): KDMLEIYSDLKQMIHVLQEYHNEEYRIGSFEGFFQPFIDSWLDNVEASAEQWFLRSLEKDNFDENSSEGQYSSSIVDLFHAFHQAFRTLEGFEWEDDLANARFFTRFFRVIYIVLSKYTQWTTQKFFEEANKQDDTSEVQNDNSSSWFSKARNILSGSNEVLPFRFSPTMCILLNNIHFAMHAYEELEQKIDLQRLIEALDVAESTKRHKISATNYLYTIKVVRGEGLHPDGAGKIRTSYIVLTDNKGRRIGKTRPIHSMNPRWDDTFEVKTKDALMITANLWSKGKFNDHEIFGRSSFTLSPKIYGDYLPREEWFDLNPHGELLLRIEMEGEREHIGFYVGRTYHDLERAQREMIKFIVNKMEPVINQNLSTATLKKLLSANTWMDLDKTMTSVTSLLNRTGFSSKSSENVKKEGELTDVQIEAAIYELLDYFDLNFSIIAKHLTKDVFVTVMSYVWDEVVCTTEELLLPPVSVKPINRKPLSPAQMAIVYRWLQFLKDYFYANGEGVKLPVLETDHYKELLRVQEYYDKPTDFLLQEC

[4] = target: T3, BD-Ync13 COOH-terminus (591-1237 aa) (S. pombe) (UniProt O13683); experiment: two-hybrid; screen and assay: BD-Ync13 fragments (pGBT9) as baits, pACT2 prey library, S. cerevisiae MaV203; quadruple dropout medium with 3AT and LacZ coloration
T3 sequence: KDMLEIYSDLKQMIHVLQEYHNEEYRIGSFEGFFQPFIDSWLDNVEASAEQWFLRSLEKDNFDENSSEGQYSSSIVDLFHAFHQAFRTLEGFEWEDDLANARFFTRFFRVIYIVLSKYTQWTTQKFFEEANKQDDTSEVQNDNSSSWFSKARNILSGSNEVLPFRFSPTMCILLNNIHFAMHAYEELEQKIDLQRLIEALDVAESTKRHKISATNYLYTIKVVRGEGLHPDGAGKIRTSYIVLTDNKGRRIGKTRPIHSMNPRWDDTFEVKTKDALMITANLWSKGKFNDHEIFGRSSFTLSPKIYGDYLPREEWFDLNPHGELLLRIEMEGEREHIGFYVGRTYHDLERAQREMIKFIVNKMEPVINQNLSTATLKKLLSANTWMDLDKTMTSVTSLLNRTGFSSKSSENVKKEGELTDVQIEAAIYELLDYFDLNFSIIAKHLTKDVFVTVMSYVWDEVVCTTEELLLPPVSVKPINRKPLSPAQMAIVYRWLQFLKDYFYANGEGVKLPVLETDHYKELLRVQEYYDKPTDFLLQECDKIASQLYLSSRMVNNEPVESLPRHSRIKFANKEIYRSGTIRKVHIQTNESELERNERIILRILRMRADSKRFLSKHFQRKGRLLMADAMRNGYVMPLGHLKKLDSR

[5] = target: T4, BD-Ync13 NH2-terminus (1-590 aa) (S. pombe) (UniProt O13683); experiment: as above
T4 sequence: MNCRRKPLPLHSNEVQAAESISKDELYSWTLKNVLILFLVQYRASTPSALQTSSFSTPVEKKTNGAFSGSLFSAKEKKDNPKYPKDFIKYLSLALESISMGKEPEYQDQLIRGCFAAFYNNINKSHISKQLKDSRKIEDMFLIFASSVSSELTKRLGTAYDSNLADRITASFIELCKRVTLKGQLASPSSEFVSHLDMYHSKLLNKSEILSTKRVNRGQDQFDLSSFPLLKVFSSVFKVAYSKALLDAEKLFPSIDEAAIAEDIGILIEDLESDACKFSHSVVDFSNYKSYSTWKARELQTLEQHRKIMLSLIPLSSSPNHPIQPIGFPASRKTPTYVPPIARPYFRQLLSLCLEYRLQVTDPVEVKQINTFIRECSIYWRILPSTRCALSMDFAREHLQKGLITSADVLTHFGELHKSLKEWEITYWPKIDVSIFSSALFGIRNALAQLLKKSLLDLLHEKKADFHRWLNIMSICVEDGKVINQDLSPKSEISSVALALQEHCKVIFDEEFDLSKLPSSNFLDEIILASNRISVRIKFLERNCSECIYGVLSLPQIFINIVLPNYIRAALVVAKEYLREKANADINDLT

binding [1]: binds
B1: Sid2-13Myc (enzyme, UniProt Q09898 1-607)
chain: MNRVNDMSPVEGDLGLQLSSEADKKFDAYMKRHGLFEPGNLSNNDKERNLEDQFNSMKLSPVASSKENYPDNHMHSKHISKLPIASPIPRGLDRSGELSYKDNNHWSDRSSTGSPRWENGSMNLSVEEMEKVVQPKVKRMATICQMFFLDHYFEQLHYLYTRKQRARLFEEQLLKEPDSRRDELVKRYNGRERVYLRKRRTRISHGDFQTITQVGQGGYGSVWLARKRDTKEIVALKIMNKSVLHKMDEIRHVLTERDILTTANSEWLVRLLYAFQDTSNIYLAMEFVPGGDFRTLLSNSGVLRDHHAKFYATEMFLAIDALHQLGYIHRDLKPENFLVGASGHIKLTDFGLSSGIISKKKIESMKIRLQEVNNVVVPERSMRERRQVFRTLLSQDPVYAHSVVGSPDYMAPEVLRGENYNHSVDYWSLGCIMYECLSGFPPFSGSNVNETWSNLKNWRKCFQRPHYDDPRDLEFNWRDDAWDFVCHCITDPKDRFCSLKQVMQHPYFSKIDWKNVRTAYRPPFVPDLNSEIDAGYFDDFTNENDMSKYKEVHEKQAAIANMVNTFNKPKRNAFIGFTFRHQKNSHPTSSSSALSSPLSAPSFGTLL

binding [3]: no binding
B4: Pmo25-full length-6His (protein, UniProt Q9P7Q8 1-329)
chain: T1 sequence

binding [4]: binds
binding [5]: no binding
B5: Pmo25-(19-329)-6His (domain or fragment, S. pombe, UniProt Q9P7Q8 19-329, looked up)
chain: LCDNLPKLEINNDKKKSFEEVSKCLQNLRVSLCGTAEVEPDADLVSDLSFQIYQSNLPFLLVRYLPKLEFESKKDTGLIFSALLRRHVASRYPTVDYMLAHPQIFPVLVSYYRYQEVAFTAGSILRECSRHEALNEVLLNSRDFWTFFSLIQASSFDMASDAFSTFKSILLNHKSQVAEFISYHFDEFFKQYTVLLKSENYVTKRQSLKLLGEILLNRANRSVMTRYISSAENLKLMMILLRDKSKNIQFEAFHVFKLFVANPEKSEEVIEILRRNKSKLISYLSAFHTDRKNDEQFNDERAFVIKQIERL
notes: pET21a, between the N-terminal T7 tag and the C-terminal 6xHis tag; not shown: His6, C-terminal, kept

Further lines, the binder ahead of its results:

B2: AD-Pmo25 (full length Pmo25 in the VP16 transcription activation domain vector pVP16) (protein, UniProt Q9P7Q8 1-329)
chain: T1 sequence
binding [2]: binds weakly

B3: Pmo25-13Myc (protein, UniProt Q9P7Q8 1-329)
chain: T1 sequence
binding (mYFP-Cdc4 (S. pombe)): binds
